According to PMC4336329 (PLoS ONE, 2015):
Hit rate of the full screen: of about 310,000 compounds, about 2,200 (0.71%) showed an effect of 50% or more. Effects have a minus sign here. The list shows a part of the results.

biological target: human ether-à-go-go-related gene (hERG) potassium channel (human, UniProt Q12809); assay: primary screen, population patch clamp on CHO cells stably expressing hERG
Sequence (Q12809 whole entry, looked up): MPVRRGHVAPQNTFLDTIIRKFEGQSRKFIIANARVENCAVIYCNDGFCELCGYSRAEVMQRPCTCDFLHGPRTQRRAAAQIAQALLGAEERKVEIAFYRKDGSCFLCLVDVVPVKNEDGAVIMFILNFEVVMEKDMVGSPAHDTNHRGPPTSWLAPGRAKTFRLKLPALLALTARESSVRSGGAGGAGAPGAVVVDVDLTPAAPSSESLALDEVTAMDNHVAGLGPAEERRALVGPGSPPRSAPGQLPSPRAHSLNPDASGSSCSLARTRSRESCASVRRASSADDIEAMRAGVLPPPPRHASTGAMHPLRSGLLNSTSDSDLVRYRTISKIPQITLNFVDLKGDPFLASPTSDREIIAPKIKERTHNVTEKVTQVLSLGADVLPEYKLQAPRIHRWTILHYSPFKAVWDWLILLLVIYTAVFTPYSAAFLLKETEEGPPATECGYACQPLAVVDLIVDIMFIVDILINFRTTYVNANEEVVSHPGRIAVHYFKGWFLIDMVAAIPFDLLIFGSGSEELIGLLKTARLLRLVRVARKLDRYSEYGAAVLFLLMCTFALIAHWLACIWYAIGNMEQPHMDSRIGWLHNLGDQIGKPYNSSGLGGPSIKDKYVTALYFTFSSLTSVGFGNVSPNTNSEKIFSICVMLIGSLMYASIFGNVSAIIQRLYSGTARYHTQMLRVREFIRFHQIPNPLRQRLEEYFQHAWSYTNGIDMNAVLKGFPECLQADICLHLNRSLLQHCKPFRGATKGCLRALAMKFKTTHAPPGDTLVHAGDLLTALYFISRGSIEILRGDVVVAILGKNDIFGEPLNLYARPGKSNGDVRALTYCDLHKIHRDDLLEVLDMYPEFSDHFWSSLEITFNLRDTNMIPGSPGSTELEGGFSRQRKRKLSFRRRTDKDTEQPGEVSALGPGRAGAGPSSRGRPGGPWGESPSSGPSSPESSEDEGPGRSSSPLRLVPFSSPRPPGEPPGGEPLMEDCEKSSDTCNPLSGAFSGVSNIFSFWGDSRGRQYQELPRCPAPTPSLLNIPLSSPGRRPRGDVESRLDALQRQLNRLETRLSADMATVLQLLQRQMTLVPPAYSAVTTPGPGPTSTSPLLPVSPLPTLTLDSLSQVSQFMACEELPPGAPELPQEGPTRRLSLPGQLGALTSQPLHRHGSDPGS

Row | Compound | hERG current change (%, negative = inhibition) at 1uM
1 | Cn1nc(C(C)(C)C)cc1C(=O)NCc1ccc(N2CCCC2=O)cc1 | -2.21%
2 | C=CCN=C1CCCc2c1[nH]c1ccc(C)cc21 | 13.2%
3 | CCOC(=O)C1CCN(C(=O)C(=O)N2CCC(C(=O)OCC)CC2)CC1 | 0.923%
4 | CCOc1cccc2cc(-c3nnc(NCc4ccco4)s3)c(=O)oc12 | 0.486%
5 | COC(=O)COc1ccc(C2NC(=O)NC(c3ccccc3)=C2C(C)=O)cc1Br (stereo not shown) | 17.3%
6 | O=C(CCCOc1ccc(Cl)cc1Cl)N1CCC2(CC1)OCCO2 | -8.4%
7 | COc1ccc(CCCc2nnc(SCC(=O)Nc3nccs3)n2C)cc1C | 14.5%
8 | CNc1[nH]ncc1[N+](=O)[O-] | 9.64%
9 | COc1ccc(/C=N/NC(=O)c2ccncc2)c(OC)c1 | 20.3%
10 | C/C=C/c1ccc(OCCCCn2cncn2)c(OC)c1 | -3.99%
11 | COC(=O)c1cnc(NNS(=O)(=O)c2ccc(Cl)cc2)nc1C(F)(F)F | 6.92%
12 | CSc1ccc(C(=O)NCC(c2ccco2)N(C)C)cc1[N+](=O)[O-] (stereo not shown) | 15.7%
13 | O=C(C1=C(O)C(=O)N(CC2CCCO2)C1c1cccc(O)c1)c1ccco1 (stereo not shown) | 10.3%
14 | CCc1ccc(NC(=O)c2cc(S(=O)(=O)N3CCc4ccccc43)cn2C)cc1 | 10.7%
15 | COC(=O)C1=C(c2cc3ccccc3s2)C[C@@H]2CC[C@H]1N2C(=O)NCc1ccc(C(F)(F)F)cc1 | 14%
16 | CN(CC(=O)Nc1c(Cl)cccc1Cl)C(=O)CNC(=O)C1CCCCC1 | 14.4%
17 | CCOc1cc(CO)cc(Br)c1OCC(=O)Nc1ccccc1C | 6.36%
18 | O=C(Cn1c(=S)[nH]c2ccccc2c1=O)N1CCN(c2ccc(F)cc2)CC1 | 6.9%
19 | COc1ccc(CCNCc2ccncc2)cc1.O=C(O)C(=O)O | 2.04%
20 | COc1ccc(O)c(-c2cc(-c3ccc(F)cc3)n[nH]2)c1 | 4.98%

Row | Compound | hERG current change (%, negative = inhibition) at 1uM
21 | CCO.Cc1nn(-c2ccccn2)c2c1C(c1ccsc1)C1=C(CCCC1=O)N2 (stereo not shown) | 6.64%
22 | CCOC(=O)c1ccc(NC(=O)CCC2COc3ccccc3O2)cc1 (stereo not shown) | 13%
23 | CCn1cc(C(=O)Nc2cc(C)ccc2C)c(=O)c2ccc(C)nc21 | 12.7%
24 | Cc1ccc(S(=O)(=O)N(C)CC(=O)N2CCCc3ccccc32)cc1 | 1.35%
25 | COCCn1c(-c2ccccc2)nc2ccccc21 | 0.528%
26 | COc1cccc(C(=O)NCCNC(=O)c2cnccn2)c1 | 12.6%
27 | CCC(NC(=O)Nc1ncccc1C)(C(F)(F)F)C(F)(F)F | -5.65%
28 | CN(C)c1oc(-c2ccc(OCc3ccccc3)cc2)nc1C#N | 10.2%
29 | CC(C)(C)NC(=O)CSc1nc(Cc2ccccc2)nc2ccccc12 | 1.92%
30 | O=c1[nH][nH]c(-c2ccccc2)c1C=Nc1ccc(OC(F)(F)F)cc1 | 8.84%
31 | COCCCn1c(C)nnc1SCC(=O)NCc1ccco1 | 13.7%
32 | NC(=O)CC[C@@H]1NC(=O)[C@H](CO)NC(=O)c2cc([N+](=O)[O-])cc(I)c2NCC[C@@H](C(N)=O)NC1=O | 15.8%
33 | C=CCn1nnnc1SCC(=O)Nc1ccc(C(=O)OC)cc1 | 5.3%
34 | CCOc1cc(/C=N/Nc2nncc(-c3ccccc3)n2)ccc1O | 5.12%
35 | Cc1ccc(N2C(N)=NC(N)=NC23CCCC3)c(C)c1.Cl | 13.7%
36 | CC1CCCC(C)N1C(=O)CSc1nnc(-c2cccs2)o1 (stereo not shown) | -3.22%
37 | CCOC(=O)c1c(C)nc2c(c1-c1ccccc1)C(=O)c1ccccc1-2 | -5.75%
38 | O=c1c2ccccc2c(C=Nc2ccc(O)cc2)c(O)n1-c1nccs1 | 6.96%
39 | CCCCCc1ccc(OCCCC[n+]2ccc(C)cc2)c(CCCCC)c1.[Cl-] | -21.7%
40 | CSc1nc(=S)c2[nH]c(=S)[nH]c2[nH]1 | 13.5%

Row | Compound | hERG current change (%, negative = inhibition) at 1uM
41 | COc1ccccc1-c1oc2ccccc2c1C#CC1(N)CCCCC1 | 19.3%
42 | CC1=CC(C)(C)N(C(=O)Nc2ccccc2)c2ccccc21 | 5.89%
43 | Cc1ccc(-c2nnn(CC(=O)N3C(C)CCCC3C)n2)cc1 (stereo not shown) | 14.7%
44 | COCCN(CCOC)C(=O)CN1C(=O)NC(Cc2c[nH]c3ccccc23)C1=O (stereo not shown) | 5.75%
45 | COCCNC(=O)C1CC2Cn3c(nc4ccccc43)C2N1C (stereo not shown) | 14.9%
46 | COc1ccccc1C(=O)NNC(=O)c1cccc(Cl)c1 | 11.3%
47 | COc1cc2c(c(OC)c1OC)-c1c(cc3c(c1OC)OCO3)[C@@H](OC(C)=O)[C@H](C)[C@H](C)C2 | 0.0059%
48 | Cc1nnc(C)n1/N=C/c1ccc(-c2ccccc2)cc1 | 4.4%
49 | COc1cccc(C(C(=O)NC2CCCC2)N(C(=O)c2ccco2)c2ccccc2F)c1OC (stereo not shown) | 13.4%
50 | COc1ccc(C(=O)C[n+]2ccc(C)cc2)cc1.[Br-] | 13.3%
51 | C=CCn1c(=O)c2c(nc3n2CCS3)n(C)c1=O | 10.2%
52 | COCCN(C(=O)CSc1nnc(-c2ccccc2OC)o1)c1c(N)n(CC(C)C)c(=O)[nH]c1=O | 5.75%
53 | CCCCSc1nc(C)cc(SCC(=O)N/N=C/c2ccccc2)n1 | 8.91%
54 | Cc1ccc(N(Cc2ccccc2)C(=O)c2cc(S(=O)(=O)N3CCOCC3)ccc2C)cc1 | 0.412%
55 | CC(=O)Nc1nc2ccccc2n1CCN(C)C | 3.11%
56 | O=C(Nc1ccc2[nH]c(=S)sc2c1)c1ccccc1 | 12.5%
57 | COc1ccc(-c2cnnc(N/N=C/c3c(C)nn(-c4ccccc4)c3Cl)n2)cc1 | 7.36%
58 | COc1cccc(NC(=O)CSc2nc3ccccc3c(=O)n2CCCC(=O)N2CCCC2)c1 | -18.2%
